# The other results are listed elsewhere or left out.
# Tested on: PF3D7_0420300 AP2 domain 1 (GST-tagged)
# Assay: gcPBM binding intensity (ln(normalized median fluorescence intensity)); higher = stronger DNA binding
# How it was run: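 Each value is the highest Masliner-normalised natural-log median intensity across replicate spots of either orientation of a probe. The probes were primer-extended double-stranded 36-bp intergenic genomic sequences on an Agilent 4 × 180k array, alongside negative controls, exposed for 1 h to GST-tagged P. falciparum DNA-binding domains expressed in E. coli. Bound protein was picked up with Alexa488 anti-GST antibody and scanned at 488 nm.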
row,Sequence,gcPBM binding intensity (ln)
1,ATATATTATATTAATTGTACATAAAAAAGAGAAAAA [XGTACX_site3366],9.25
2,TACATACACGGACACACACACATATATATATATATA [CACACA_site5883],9.95
3,TAATTTTATATTAAAAGTACATAATAAAAACTATAA [XGTACX_site8779],9.06
4,AAGAAATATATATATATATATATATATATATATGTA [TGCATGCA_negctrl_site442],9.08
5,TTTAAAAACAAATATTGTACAAATTAAAATATATCA [XGTACX_site7220],9.07
6,AGAGCATAATAAAACACACACATACATACAGATATA [CACACA_site4671],9.87
7,CACTAATATATATACAGTACATAATAAAGTATATAA [XGTACX_site6875],9.32
8,TGATGATATAAAAACACACACATATAATATAATACT [CACACA_site1208],10
9,CTGTTTTACTTTAGTAGTACAATAAAAATATAAAAA [XGTACX_site2934],9.02
10,TATTACCCATATTATACACACATATATTATATATAT [CACACA_site1567],9.54
11,AAAAAAAAAAAACATACACACAAATATATACATACA [CACACA_site4011],9.89
12,ATAATATCTTCTTTTTTTTTTTTTTTTTTTTTTTTT [CACACA_negctrl_site1005],9.04
13,AAATGATGCATTTGTCATTAAAATTGTGAAATATTA [CACACA_negctrl_site231],8.98
14,AAAAAAAAAAAAAAAAGTACATATATATATAATTAT [XGTACX_site7836],9.37
15,TATAATAAAATATGTACACACATACAGACATATATA [CACACA_site6693],9.74
16,ATATATATATAATGTGTACACACATATGTATTTATA [CACACA_site8170],9.53
17,TAATTAAGATGATAAAAATTGAAAAAACAATTTTAA [CACACA_negctrl_site658],8.81
18,AGAGTATATAAAGTAACACACAATAAAATAAAATAA [CACACA_site2328],9.82
19,CATATAGTATAAATTTGTACATAAATATATATATAT [XGTACX_site7477],9.36
20,TTTCTAATTTATATCACACACATATATTTATAGTAA [CACACA_site6280],9.45
21,GTTTACTAATATTGCACACGAATATGAAAAAGAGAA [CACACA_site2897],9.45
22,GTGTTAACTATTATGAGTACTTATGTATTAATTCAT [XGTACX_site7767],9.25

row,Sequence,gcPBM binding intensity (ln)
1,TTGCTTATTAAATGGGGTACATTATATATATATATA [XGTACX_site2515],9.49
2,TAAATTTGTGGGATTTCACACAGGTTTATTTACATT [CACACA_site5455],9.26
3,ATGTAGGTTAATTATTGTACGTAGGGGGTGTATATT [XGTACX_site3973],10.2
4,TTCAGAGAATAAAAATGTACATATAATATTTTAAAA [XGTACX_site577],8.88
5,CTCTTGTCATTTTGCACACACACATGTATAGGTTAT [CACACA_site3057],10.2
6,TTTACATCAACCTTTTCACACATTCATATACAGATA [CACACA_site6152],9.32
7,TGTGTTTATACGTTTTGTACATATTTTTATTTTGTA [XGTACX_site6425],9.6
8,TCATTAAAGGAAAAATGTACGTATAAATAAATATAT [XGTACX_site2587],9.32
9,TTCAAAAAATAAAATAATAATATATATATAAATATA [XGTACX_negctrl_site84],9.02
10,TTTTTTATATTTAAACTTCACATGGTTTTCATTTAT [XGTACX_negctrl_site291],9.34
11,ATACATATATATATATGTACACATAAACATGAGTGA [XGTACX_site3200],9.29
12,TAATGGAAACCATTTATTTTCTGCAATATATTTTTT [CACACA_negctrl_site1653],9.03
13,AAACAAAATATGGTTCATGAGCAAAAGTTTATTTTG [XGTACX_negctrl_site531],9.27
14,ATTTATTTATACAAAGTGCAATATTTTGTTAAAGTC [GTGCAC_site9618],9.3
15,AATGTAAAATATAAATGTACATATATATATATATAT [XGTACX_site5071],9.16
16,CTCTTTTCTTATAATACACACAGTAATATATATATA [CACACA_site1520],9.53
17,TATAAAATACATTTATAATATATATATATATTTTTT [TGCATGCA_negctrl_site435],8.99
18,ATATGAAATATATAAATATGTTTATATATATATATA [GTGCAC_negctrl_site94],8.95
19,TACCTAATATGTTATACACACATTATAAGTACATAT [CACACA_site7206],9.6
20,AATATAACTTAGAATTGTACATAAAAAAAAATATAT [XGTACX_site3313],9.35
21,TAAGAAATAAATAGTACACACATAGACACACGCACA [CACACA_site6821],9.92
22,ATACATAAAATTAAAACACACATTTTATTAAATACG [CACACA_site2167],9.48
